According to publication PMC6465297:
Results are given in words; binding and its absence hold for the method and conditions named. Binding seen in cells or lysates may run through a third protein. Some binding calls cover weakened binding; strength is not graded here. Sequences can lack the tags named with a protein.

Chains of the proteins cited; added tags and fusions are not shown.
UniProt Q9BVV6: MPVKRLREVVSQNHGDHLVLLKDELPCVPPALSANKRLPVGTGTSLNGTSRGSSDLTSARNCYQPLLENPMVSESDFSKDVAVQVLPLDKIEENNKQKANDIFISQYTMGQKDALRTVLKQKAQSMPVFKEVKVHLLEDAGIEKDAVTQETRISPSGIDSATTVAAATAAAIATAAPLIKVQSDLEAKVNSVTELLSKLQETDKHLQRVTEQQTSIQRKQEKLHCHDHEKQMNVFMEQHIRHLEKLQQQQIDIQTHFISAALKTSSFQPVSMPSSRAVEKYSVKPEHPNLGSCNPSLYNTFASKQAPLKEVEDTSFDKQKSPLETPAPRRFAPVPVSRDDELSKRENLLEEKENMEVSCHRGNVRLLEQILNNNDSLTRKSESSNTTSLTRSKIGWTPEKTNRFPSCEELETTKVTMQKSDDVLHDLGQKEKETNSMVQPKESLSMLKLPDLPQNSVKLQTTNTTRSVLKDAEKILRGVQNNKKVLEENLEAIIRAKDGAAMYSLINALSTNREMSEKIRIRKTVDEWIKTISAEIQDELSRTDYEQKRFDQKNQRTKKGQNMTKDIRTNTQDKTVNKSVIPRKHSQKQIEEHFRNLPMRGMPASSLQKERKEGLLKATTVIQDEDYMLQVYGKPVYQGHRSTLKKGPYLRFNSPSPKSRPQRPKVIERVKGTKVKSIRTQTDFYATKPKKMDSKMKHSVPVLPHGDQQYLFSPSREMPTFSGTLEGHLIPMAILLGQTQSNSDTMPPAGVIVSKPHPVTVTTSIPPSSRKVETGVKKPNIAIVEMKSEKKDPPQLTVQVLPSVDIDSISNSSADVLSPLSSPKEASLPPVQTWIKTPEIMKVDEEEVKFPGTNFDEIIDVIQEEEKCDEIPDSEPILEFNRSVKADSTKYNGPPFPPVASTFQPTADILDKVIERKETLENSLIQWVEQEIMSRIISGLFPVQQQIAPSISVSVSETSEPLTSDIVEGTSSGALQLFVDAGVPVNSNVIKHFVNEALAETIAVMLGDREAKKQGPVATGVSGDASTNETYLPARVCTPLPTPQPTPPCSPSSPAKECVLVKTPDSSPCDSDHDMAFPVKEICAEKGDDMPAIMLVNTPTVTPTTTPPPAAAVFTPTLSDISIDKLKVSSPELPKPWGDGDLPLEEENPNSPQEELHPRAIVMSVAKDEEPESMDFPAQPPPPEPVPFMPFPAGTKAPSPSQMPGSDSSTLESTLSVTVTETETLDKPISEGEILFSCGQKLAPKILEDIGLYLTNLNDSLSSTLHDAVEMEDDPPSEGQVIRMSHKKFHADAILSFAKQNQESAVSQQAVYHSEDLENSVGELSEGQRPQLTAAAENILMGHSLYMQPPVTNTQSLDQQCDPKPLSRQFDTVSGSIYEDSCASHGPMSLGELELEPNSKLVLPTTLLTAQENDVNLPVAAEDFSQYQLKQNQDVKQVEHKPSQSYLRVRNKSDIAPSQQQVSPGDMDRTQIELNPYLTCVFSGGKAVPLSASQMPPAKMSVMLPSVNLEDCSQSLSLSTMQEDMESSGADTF
UniProt Q4AC94: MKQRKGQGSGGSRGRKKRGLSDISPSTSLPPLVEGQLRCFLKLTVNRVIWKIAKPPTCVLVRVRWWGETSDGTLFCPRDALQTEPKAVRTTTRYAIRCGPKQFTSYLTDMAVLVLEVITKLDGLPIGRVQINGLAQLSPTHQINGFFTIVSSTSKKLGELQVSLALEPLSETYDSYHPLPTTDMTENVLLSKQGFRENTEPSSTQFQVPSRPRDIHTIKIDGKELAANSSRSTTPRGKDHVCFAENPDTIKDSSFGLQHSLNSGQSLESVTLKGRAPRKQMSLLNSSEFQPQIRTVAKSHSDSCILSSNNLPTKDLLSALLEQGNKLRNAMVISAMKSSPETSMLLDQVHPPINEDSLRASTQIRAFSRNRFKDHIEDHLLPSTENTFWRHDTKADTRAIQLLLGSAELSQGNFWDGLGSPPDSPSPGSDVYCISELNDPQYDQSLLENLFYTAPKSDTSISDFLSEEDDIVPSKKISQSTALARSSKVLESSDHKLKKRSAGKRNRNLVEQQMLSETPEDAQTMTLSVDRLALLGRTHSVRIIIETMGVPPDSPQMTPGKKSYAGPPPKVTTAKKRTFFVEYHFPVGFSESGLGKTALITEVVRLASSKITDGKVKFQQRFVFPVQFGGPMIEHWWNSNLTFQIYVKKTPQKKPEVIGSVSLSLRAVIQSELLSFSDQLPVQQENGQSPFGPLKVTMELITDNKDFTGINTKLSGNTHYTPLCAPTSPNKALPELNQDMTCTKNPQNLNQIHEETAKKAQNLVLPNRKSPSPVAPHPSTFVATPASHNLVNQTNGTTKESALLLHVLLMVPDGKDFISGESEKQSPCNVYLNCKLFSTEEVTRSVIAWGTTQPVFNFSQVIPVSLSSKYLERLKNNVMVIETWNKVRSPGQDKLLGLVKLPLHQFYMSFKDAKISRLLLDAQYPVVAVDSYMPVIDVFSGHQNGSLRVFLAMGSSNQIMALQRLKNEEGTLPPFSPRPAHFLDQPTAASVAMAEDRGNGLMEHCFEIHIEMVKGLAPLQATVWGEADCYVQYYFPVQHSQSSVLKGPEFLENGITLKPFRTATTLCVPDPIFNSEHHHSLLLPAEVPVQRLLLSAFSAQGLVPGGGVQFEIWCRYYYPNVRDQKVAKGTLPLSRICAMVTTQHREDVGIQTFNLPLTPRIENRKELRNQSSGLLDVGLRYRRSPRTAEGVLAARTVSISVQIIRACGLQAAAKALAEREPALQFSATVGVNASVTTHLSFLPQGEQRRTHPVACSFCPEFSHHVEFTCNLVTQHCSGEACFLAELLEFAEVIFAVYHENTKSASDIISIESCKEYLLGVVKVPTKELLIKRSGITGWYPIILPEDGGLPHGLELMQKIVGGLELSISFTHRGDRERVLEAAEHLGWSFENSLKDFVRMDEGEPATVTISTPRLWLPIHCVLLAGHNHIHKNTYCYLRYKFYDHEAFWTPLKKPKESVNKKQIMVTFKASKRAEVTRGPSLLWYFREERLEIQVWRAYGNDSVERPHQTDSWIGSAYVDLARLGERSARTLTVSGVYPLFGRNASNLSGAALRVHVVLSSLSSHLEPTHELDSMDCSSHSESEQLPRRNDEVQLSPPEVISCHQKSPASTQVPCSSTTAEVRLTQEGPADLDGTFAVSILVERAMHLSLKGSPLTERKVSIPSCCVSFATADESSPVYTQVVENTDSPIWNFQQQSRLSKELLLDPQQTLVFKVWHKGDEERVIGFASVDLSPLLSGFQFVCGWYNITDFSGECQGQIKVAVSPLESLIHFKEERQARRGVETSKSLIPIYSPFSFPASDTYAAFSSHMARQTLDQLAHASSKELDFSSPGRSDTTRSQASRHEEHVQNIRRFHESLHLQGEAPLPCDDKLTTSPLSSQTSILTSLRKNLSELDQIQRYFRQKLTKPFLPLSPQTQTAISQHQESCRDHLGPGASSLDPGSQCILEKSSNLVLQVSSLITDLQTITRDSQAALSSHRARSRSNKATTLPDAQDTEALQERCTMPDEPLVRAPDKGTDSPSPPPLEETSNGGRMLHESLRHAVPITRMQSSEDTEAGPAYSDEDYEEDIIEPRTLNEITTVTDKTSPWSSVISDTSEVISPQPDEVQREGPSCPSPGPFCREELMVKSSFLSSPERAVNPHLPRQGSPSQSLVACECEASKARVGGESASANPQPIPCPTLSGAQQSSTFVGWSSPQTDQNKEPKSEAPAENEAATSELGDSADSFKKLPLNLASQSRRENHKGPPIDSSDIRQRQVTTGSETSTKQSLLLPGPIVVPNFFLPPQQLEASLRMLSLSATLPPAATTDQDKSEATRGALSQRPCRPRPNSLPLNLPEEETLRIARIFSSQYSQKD

T1: GST-CEP120 (aa 416–894) (human) (UniProt Q8N960)
T1 sequence: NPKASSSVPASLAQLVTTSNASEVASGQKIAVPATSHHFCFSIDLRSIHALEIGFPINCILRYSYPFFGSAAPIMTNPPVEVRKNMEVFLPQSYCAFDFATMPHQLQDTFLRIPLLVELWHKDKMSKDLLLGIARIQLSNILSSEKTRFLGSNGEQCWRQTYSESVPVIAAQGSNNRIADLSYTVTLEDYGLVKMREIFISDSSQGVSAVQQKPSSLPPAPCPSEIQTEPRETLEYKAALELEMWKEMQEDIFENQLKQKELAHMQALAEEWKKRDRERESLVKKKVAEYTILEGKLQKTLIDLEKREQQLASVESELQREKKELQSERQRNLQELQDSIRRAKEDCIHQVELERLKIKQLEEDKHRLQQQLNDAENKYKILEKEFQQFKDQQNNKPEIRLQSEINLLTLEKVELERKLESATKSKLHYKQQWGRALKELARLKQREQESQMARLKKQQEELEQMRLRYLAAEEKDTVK

T2: GST-CEP120 (aa 1–441) (human) (UniProt Q8N960)
T2 sequence: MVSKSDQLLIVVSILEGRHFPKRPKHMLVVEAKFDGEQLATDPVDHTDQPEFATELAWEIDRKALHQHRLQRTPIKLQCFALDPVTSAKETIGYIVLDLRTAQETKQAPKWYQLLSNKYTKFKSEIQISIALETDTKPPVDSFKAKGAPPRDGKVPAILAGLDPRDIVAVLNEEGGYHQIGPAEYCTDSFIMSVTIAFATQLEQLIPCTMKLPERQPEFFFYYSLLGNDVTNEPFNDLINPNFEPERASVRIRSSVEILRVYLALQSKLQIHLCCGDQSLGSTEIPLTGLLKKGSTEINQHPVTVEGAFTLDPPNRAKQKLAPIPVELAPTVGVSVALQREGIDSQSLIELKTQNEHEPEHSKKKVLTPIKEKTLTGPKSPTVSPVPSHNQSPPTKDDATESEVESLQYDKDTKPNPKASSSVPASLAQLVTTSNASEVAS

T3: GST-CEP120 (aa 792–986) (human) (UniProt Q8N960)
T3 sequence: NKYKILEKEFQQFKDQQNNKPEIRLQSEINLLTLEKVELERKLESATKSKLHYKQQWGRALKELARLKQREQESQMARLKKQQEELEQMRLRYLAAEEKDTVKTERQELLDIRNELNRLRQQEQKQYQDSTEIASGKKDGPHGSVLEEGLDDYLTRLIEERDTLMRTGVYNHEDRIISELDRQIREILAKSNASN


What was measured:
[1] = target: T1, GST-CEP120 (aa 416–894) (human); assay: pull-down; bead-bound GST or GST-CEP120 proteins incubated with in vitro translated ^35S-methionine-labeled protein in EBC buffer (50 mM Tris–HCl pH 8.0, 150 mM NaCl, 1% NP-40) without sodium deoxycholate; SDS-PAGE and autoradiography; only the target purified
[2] = target: T2, GST-CEP120 (aa 1–441) (human); assay: as above
[3] = target: T3, GST-CEP120 (aa 792–986) (human); assay: as above
[4] = target: T3, GST-CEP120 (aa 792–986) (human); assay: pull-down; bead-bound GST-CEP120 proteins incubated with in vitro translated ^35S-methionine-labeled protein in EBC buffer (50 mM Tris–HCl pH 8.0, 150 mM NaCl, 1% NP-40) with 0.5% sodium deoxycholate (SDC); SDS-PAGE and autoradiography; only the target purified
[5] = target: T1, GST-CEP120 (aa 416–894) (human); assay: condition: only with 0.5% sodium deoxycholate (SDC) in the reaction buffer; pull-down; bead-bound GST-CEP120 proteins incubated with in vitro translated ^35S-methionine-labeled protein in EBC buffer (50 mM Tris–HCl pH 8.0, 150 mM NaCl, 1% NP-40) with 0.5% sodium deoxycholate (SDC); SDS-PAGE and autoradiography; only the target purified
[6] = target: GFP-Talpid3 (human) (UniProt Q9BVV6); assay: co-IP; HEK293T cells co-transfected with the GFP- and myc-tagged constructs; lysates 24 h after transfection immunoprecipitated (anti-GFP antibody in the mapping) and immunoblotted
[7] = target: full-length GFP-C2CD3 (human) (UniProt Q4AC94); assay: as above

binding [6]	binding [7]	Molecule	other results
–	–	in vitro-translated ^35S-methionine-labeled full-length C2CD3 (from UniProt Q4AC94 1-2353)	binding [1]: binds weakly; binding [2]: no binding; binding [3]: binds; binding [4]: binds
–	–	^35S-methionine-labeled full-length Talpid3 (from UniProt Q9BVV6 1-1533)	binding [1]: binds; binding [5]: no binding
binds	–	myc-tagged CEP120 (aa 416–730) (domain or fragment, UniProt Q8N960 416-730) NPKASSSVPASLAQLVTTSNASEVASGQKIAVPATSHHFCFSIDLRSIHALEIGFPINCILRYSYPFFGSAAPIMTNPPVEVRKNMEVFLPQSYCAFDFATMPHQLQDTFLRIPLLVELWHKDKMSKDLLLGIARIQLSNILSSEKTRFLGSNGEQCWRQTYSESVPVIAAQGSNNRIADLSYTVTLEDYGLVKMREIFISDSSQGVSAVQQKPSSLPPAPCPSEIQTEPRETLEYKAALELEMWKEMQEDIFENQLKQKELAHMQALAEEWKKRDRERESLVKKKVAEYTILEGKLQKTLIDLEKREQQLASVE	–
binds	binds	full-length CEP120-myc (aa 1–986) (protein, UniProt Q8N960 1-986) MVSKSDQLLIVVSILEGRHFPKRPKHMLVVEAKFDGEQLATDPVDHTDQPEFATELAWEIDRKALHQHRLQRTPIKLQCFALDPVTSAKETIGYIVLDLRTAQETKQAPKWYQLLSNKYTKFKSEIQISIALETDTKPPVDSFKAKGAPPRDGKVPAILAGLDPRDIVAVLNEEGGYHQIGPAEYCTDSFIMSVTIAFATQLEQLIPCTMKLPERQPEFFFYYSLLGNDVTNEPFNDLINPNFEPERASVRIRSSVEILRVYLALQSKLQIHLCCGDQSLGSTEIPLTGLLKKGSTEINQHPVTVEGAFTLDPPNRAKQKLAPIPVELAPTVGVSVALQREGIDSQSLIELKTQNEHEPEHSKKKVLTPIKEKTLTGPKSPTVSPVPSHNQSPPTKDDATESEVESLQYDKDTKPNPKASSSVPASLAQLVTTSNASEVASGQKIAVPATSHHFCFSIDLRSIHALEIGFPINCILRYSYPFFGSAAPIMTNPPVEVRKNMEVFLPQSYCAFDFATMPHQLQDTFLRIPLLVELWHKDKMSKDLLLGIARIQLSNILSSEKTRFLGSNGEQCWRQTYSESVPVIAAQGSNNRIADLSYTVTLEDYGLVKMREIFISDSSQGVSAVQQKPSSLPPAPCPSEIQTEPRETLEYKAALELEMWKEMQEDIFENQLKQKELAHMQALAEEWKKRDRERESLVKKKVAEYTILEGKLQKTLIDLEKREQQLASVESELQREKKELQSERQRNLQELQDSIRRAKEDCIHQVELERLKIKQLEEDKHRLQQQLNDAENKYKILEKEFQQFKDQQNNKPEIRLQSEINLLTLEKVELERKLESATKSKLHYKQQWGRALKELARLKQREQESQMARLKKQQEELEQMRLRYLAAEEKDTVKTERQELLDIRNELNRLRQQEQKQYQDSTEIASGKKDGPHGSVLEEGLDDYLTRLIEERDTLMRTGVYNHEDRIISELDRQIREILAKSNASN	–
–	no binding	CEP120 (aa 1–730), myc-tagged (domain or fragment, UniProt Q8N960 1-730) MVSKSDQLLIVVSILEGRHFPKRPKHMLVVEAKFDGEQLATDPVDHTDQPEFATELAWEIDRKALHQHRLQRTPIKLQCFALDPVTSAKETIGYIVLDLRTAQETKQAPKWYQLLSNKYTKFKSEIQISIALETDTKPPVDSFKAKGAPPRDGKVPAILAGLDPRDIVAVLNEEGGYHQIGPAEYCTDSFIMSVTIAFATQLEQLIPCTMKLPERQPEFFFYYSLLGNDVTNEPFNDLINPNFEPERASVRIRSSVEILRVYLALQSKLQIHLCCGDQSLGSTEIPLTGLLKKGSTEINQHPVTVEGAFTLDPPNRAKQKLAPIPVELAPTVGVSVALQREGIDSQSLIELKTQNEHEPEHSKKKVLTPIKEKTLTGPKSPTVSPVPSHNQSPPTKDDATESEVESLQYDKDTKPNPKASSSVPASLAQLVTTSNASEVASGQKIAVPATSHHFCFSIDLRSIHALEIGFPINCILRYSYPFFGSAAPIMTNPPVEVRKNMEVFLPQSYCAFDFATMPHQLQDTFLRIPLLVELWHKDKMSKDLLLGIARIQLSNILSSEKTRFLGSNGEQCWRQTYSESVPVIAAQGSNNRIADLSYTVTLEDYGLVKMREIFISDSSQGVSAVQQKPSSLPPAPCPSEIQTEPRETLEYKAALELEMWKEMQEDIFENQLKQKELAHMQALAEEWKKRDRERESLVKKKVAEYTILEGKLQKTLIDLEKREQQLASVE	–
binds	–	myc-tagged CEP120 (aa 416–894) (domain or fragment, UniProt Q8N960 416-894) NPKASSSVPASLAQLVTTSNASEVASGQKIAVPATSHHFCFSIDLRSIHALEIGFPINCILRYSYPFFGSAAPIMTNPPVEVRKNMEVFLPQSYCAFDFATMPHQLQDTFLRIPLLVELWHKDKMSKDLLLGIARIQLSNILSSEKTRFLGSNGEQCWRQTYSESVPVIAAQGSNNRIADLSYTVTLEDYGLVKMREIFISDSSQGVSAVQQKPSSLPPAPCPSEIQTEPRETLEYKAALELEMWKEMQEDIFENQLKQKELAHMQALAEEWKKRDRERESLVKKKVAEYTILEGKLQKTLIDLEKREQQLASVESELQREKKELQSERQRNLQELQDSIRRAKEDCIHQVELERLKIKQLEEDKHRLQQQLNDAENKYKILEKEFQQFKDQQNNKPEIRLQSEINLLTLEKVELERKLESATKSKLHYKQQWGRALKELARLKQREQESQMARLKKQQEELEQMRLRYLAAEEKDTVK	–
–	no binding	CEP120-myc (aa 1–894) (domain or fragment, UniProt Q8N960 1-894) MVSKSDQLLIVVSILEGRHFPKRPKHMLVVEAKFDGEQLATDPVDHTDQPEFATELAWEIDRKALHQHRLQRTPIKLQCFALDPVTSAKETIGYIVLDLRTAQETKQAPKWYQLLSNKYTKFKSEIQISIALETDTKPPVDSFKAKGAPPRDGKVPAILAGLDPRDIVAVLNEEGGYHQIGPAEYCTDSFIMSVTIAFATQLEQLIPCTMKLPERQPEFFFYYSLLGNDVTNEPFNDLINPNFEPERASVRIRSSVEILRVYLALQSKLQIHLCCGDQSLGSTEIPLTGLLKKGSTEINQHPVTVEGAFTLDPPNRAKQKLAPIPVELAPTVGVSVALQREGIDSQSLIELKTQNEHEPEHSKKKVLTPIKEKTLTGPKSPTVSPVPSHNQSPPTKDDATESEVESLQYDKDTKPNPKASSSVPASLAQLVTTSNASEVASGQKIAVPATSHHFCFSIDLRSIHALEIGFPINCILRYSYPFFGSAAPIMTNPPVEVRKNMEVFLPQSYCAFDFATMPHQLQDTFLRIPLLVELWHKDKMSKDLLLGIARIQLSNILSSEKTRFLGSNGEQCWRQTYSESVPVIAAQGSNNRIADLSYTVTLEDYGLVKMREIFISDSSQGVSAVQQKPSSLPPAPCPSEIQTEPRETLEYKAALELEMWKEMQEDIFENQLKQKELAHMQALAEEWKKRDRERESLVKKKVAEYTILEGKLQKTLIDLEKREQQLASVESELQREKKELQSERQRNLQELQDSIRRAKEDCIHQVELERLKIKQLEEDKHRLQQQLNDAENKYKILEKEFQQFKDQQNNKPEIRLQSEINLLTLEKVELERKLESATKSKLHYKQQWGRALKELARLKQREQESQMARLKKQQEELEQMRLRYLAAEEKDTVK	–
